Experimental data taken from the supplement of paper PMC9446081.
The whole screen tested about 39,000 compounds, of which about 220 (0.56%) showed activity. The list shows a part of the results.

System: Escherichia coli K-12 BW25113
Experiment: relative growth (OD600 normalised to plate interquartile mean) (fraction); higher = less growth inhibition, active = 0.2 or less
Conditions: 50 µM; LB; incubation time: overnight (16-24 h)
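Note: static incubation at 37 °C against the wild-type strain, values averaged over two biological replicates.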

SMILES | relative growth
COc1ccc(CN(C)C[C@@H]2OCCCC[C@@H](C)Oc3ccc(NC(=O)Nc4cccc5ccccc45)cc3C(=O)N([C@H](C)CO)C[C@@H]2C)cc1 | inactive: 1.01
COc1ccc2c3c(n(c2c1)C)[C@@H](CO)N(C[C@]13CCN(CC1)C(=O)Nc1ccc(cc1F)F)C(=O)Nc1ccc(cc1)F | inactive: 0.991
CO[C@H]1CN(C)C(=O)c2cc(NS(=O)(=O)c3cn(C)cn3)ccc2OC[C@H](C)N(CC2CC2)C[C@H]1C | inactive: 0.988
C[C@H](CO)N1C[C@H](C)[C@H](CN(C)C(=O)c2cccc(F)c2)Oc2cc(-c3cccnc3)ccc2S1(=O)=O | inactive: 1.03
COc1ccc(S(=O)(=O)N(C)C[C@@H]2Oc3ncc(C#Cc4ccccc4)cc3C(=O)N([C@H](C)CO)C[C@@H]2C)cc1 | inactive: 0.891
O=c1[nH]c2ccccc2c(=O)n1CCCO | inactive: 0.968
COc1ccc(-c2cnc3c(c2)C(=O)N([C@H](C)CO)C[C@@H](C)[C@H](CN(C)S(=O)(=O)c2ccc(OC)cc2)O3)cc1 | inactive: 1
COc1cccc(C(=O)Nc2ccc3c(c2)C(=O)N(C)[C@H]2CC[C@@H](CC(=O)NCCCN4CCOCC4)O[C@H]2CO3)c1 | inactive: 1
C[C@H]1CN([C@@H](C)CO)C(=O)CCCn2nncc2CO[C@H]1CN(C)C(=O)Nc1ccc2c(c1)OCCO2 | inactive: 0.994
C[C@@H]1CN([C@@H](C)CO)C(=O)c2cccc(NC(=O)Nc3ccc(F)cc3)c2O[C@@H]1CN(C)Cc1ccc(-c2ccccc2)cc1 | inactive: 0.994
COC(=O)c1c2oc(c1C(=O)OC)C(=O)N(C)Cc1cn(nn1)C[C@H](Cc1ccccc1)NC(=O)N[C@H](CO)CC2 | inactive: 0.992
COc1ccc([Si](C)(C)[C@H]2[C@H](CC(=O)N3Cc4ccccc4C[C@H]3CO)O[C@@]3(C(=O)N(Cc4cccc(N5C(=O)c6cccc7cccc5c67)c4)c4ccccc43)[C@@H]2C)cc1 | inactive: 1.01
Cc1noc(C)c1NC(=O)Nc1ccc2c(c1)C(=O)N([C@H](C)CO)C[C@H](C)[C@@H](CN(C)C(=O)Nc1ccc(C(F)(F)F)cc1)O2 | inactive: 0.947
Cc1noc(C)c1NC(=O)Nc1ccc2c(c1)CC(=O)N([C@@H](C)CO)C[C@H](C)[C@@H](CN(C)Cc1ccc(Oc3ccccc3)cc1)O2 | inactive: 0.998
CN1C(=O)c2cc(NC(=O)Cc3cccs3)ccc2OC[C@H]2O[C@@H](CC(=O)NCCCN3CCOCC3)CC[C@H]21 | inactive: 0.992
C[C@H](CO)N1C[C@H](C)[C@@H](CN(C)S(C)(=O)=O)Oc2ccc(NC(=O)Nc3ccc4c(c3)OCO4)cc2CC1=O | inactive: 1.02
C[C@@H]1CN([C@H](C)CO)C(=O)c2ccccc2-c2ccccc2CO[C@H]1CN(C)C(=O)Nc1ccccc1C(F)(F)F | inactive: 0.986
C[C@H]1CCCCO[C@H](CN(C)CC2CCCCC2)[C@@H](C)CN([C@@H](C)CO)C(=O)c2cc(NC(=O)CCC(F)(F)F)ccc2O1 | inactive: 0.966

SMILES | relative growth
CC(C)CC#Cc1ccc2c(c1)O[C@H](CN(C)S(=O)(=O)c1cccc(F)c1)[C@H](C)CN([C@@H](C)CO)S2(=O)=O | inactive: 1.05
Cc1noc(C)c1NC(=O)N(C)C[C@@H]1Oc2ccc(NC(=O)CCN3CCOCC3)cc2CC(=O)N([C@H](C)CO)C[C@@H]1C | inactive: 1.01
O=C(Cc1ccncc1)Nc1ccc2c(c1)[C@H]1C[C@H](CC(=O)N3CCc4ccccc4C3)O[C@@H](CO)[C@H]1O2 | inactive: 1.01
Cc1ccccc1-c1ncc(-c2ccc(Br)cc2)o1 | inactive: 0.982
COc1ccc(NC(=O)Nc2ccc3c(c2)C(=O)N([C@H](C)CO)C[C@H](C)[C@H](CN(C)C(=O)Nc2ccc(OC)cc2)OCCCC[C@H](C)O3)cc1 | inactive: 1.05
C[C@@H]1CN([C@H](C)CO)C(=O)c2cccc(NC(=O)c3nc4ccccc4s3)c2O[C@@H]1CN(C)Cc1ccc(C(F)(F)F)cc1 | inactive: 0.957
Cc1ccc(S(=O)(=O)Nc2ccc3c(c2)C(=O)N([C@H](C)CO)C[C@@H](C)[C@@H](CN(C)Cc2ccc(C(F)(F)F)cc2)OCCCC[C@H](C)O3)cc1 | inactive: 1.02
COc1ccc(S(=O)(=O)Nc2ccc3c(c2)CC(=O)N([C@@H](C)CO)C[C@@H](C)[C@@H](CN(C)S(=O)(=O)c2cn(C)cn2)O3)cc1 | inactive: 0.995
C[C@@H]1CN([C@H](C)CO)S(=O)(=O)c2ccc(C#Cc3ccncc3)cc2O[C@@H]1CN(C)C(=O)C1CCCCC1 | inactive: 0.983
C[C@H]1CN([C@@H](C)CO)C(=O)c2cc(NC(=O)C3CC3)ccc2O[C@@H]1CN(C)C(=O)Nc1ccc2c(c1)OCO2 | inactive: 0.992
COc1ccc(S(=O)(=O)Nc2cccc3c2O[C@H](CN(C)Cc2ccc(-c4ccccc4)cc2)[C@@H](C)CN([C@H](C)CO)C3=O)cc1 | inactive: 1.06
C[C@@H]1CN([C@H](C)CO)C(=O)c2cc(NS(=O)(=O)c3ccccc3)ccc2O[C@@H](C)CCCCO[C@H]1CN(C)S(=O)(=O)c1ccc(Cl)cc1 | inactive: 0.996
Cc1noc(C)c1NC(=O)N(C)C[C@H]1OCCCC[C@@H](C)Oc2ccc(NC(=O)CCC(F)(F)F)cc2C(=O)N([C@H](C)CO)C[C@H]1C | inactive: 1.02
C[C@@H]1CN([C@@H](C)CO)C(=O)c2cc(NC(=O)Nc3ccccc3)ccc2O[C@@H]1CN(C)C(=O)Nc1ccc(C(F)(F)F)cc1 | inactive: 0.978
C[C@@H]1CN([C@@H](C)CO)C(=O)c2cc(C#Cc3ccccn3)cnc2O[C@@H]1CN(C)C(=O)c1cnccn1 | inactive: 0.987
COc1ccccc1S(=O)(=O)N(C)C[C@H]1OCc2cn(nn2)CCCC(=O)N([C@H](C)CO)C[C@@H]1C | inactive: 0.964
CO[C@@H]1CN(C)C(=O)c2cc(NC(=O)CC(F)(F)F)ccc2OC[C@H](C)N(S(=O)(=O)c2cn(C)cn2)C[C@H]1C | inactive: 0.996
CC(C)CC#Cc1cnc2c(c1)C(=O)N([C@@H](C)CO)C[C@@H](C)[C@H](CN(C)C(=O)CCN1CCCCC1)O2 | inactive: 0.987
